Measured values published in PMC6919601, “Identification of Plasmodium dipeptidyl aminopeptidase allosteric inhibitors by high throughput screening” (PLoS ONE, 2019).
Screen size: about 110,000 compounds; about 230 (0.21%) showed an effect of 50% or more. The list shows a part of the results.

Target: DPAP1 (Plasmodium falciparum, UniProt Q8IIJ9)
Test: primary screen, percent inhibition; read by cleavage of a fluorogenic dipeptide substrate; higher = more effect of the substance
Design: species or system P. falciparum D10 trophozoite lysates; single well
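Note: 30 min substrate incubation versus DMSO and 10 µM JCP410 controls.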

Sequence of DPAP1 (Q8IIJ9 whole entry, looked up): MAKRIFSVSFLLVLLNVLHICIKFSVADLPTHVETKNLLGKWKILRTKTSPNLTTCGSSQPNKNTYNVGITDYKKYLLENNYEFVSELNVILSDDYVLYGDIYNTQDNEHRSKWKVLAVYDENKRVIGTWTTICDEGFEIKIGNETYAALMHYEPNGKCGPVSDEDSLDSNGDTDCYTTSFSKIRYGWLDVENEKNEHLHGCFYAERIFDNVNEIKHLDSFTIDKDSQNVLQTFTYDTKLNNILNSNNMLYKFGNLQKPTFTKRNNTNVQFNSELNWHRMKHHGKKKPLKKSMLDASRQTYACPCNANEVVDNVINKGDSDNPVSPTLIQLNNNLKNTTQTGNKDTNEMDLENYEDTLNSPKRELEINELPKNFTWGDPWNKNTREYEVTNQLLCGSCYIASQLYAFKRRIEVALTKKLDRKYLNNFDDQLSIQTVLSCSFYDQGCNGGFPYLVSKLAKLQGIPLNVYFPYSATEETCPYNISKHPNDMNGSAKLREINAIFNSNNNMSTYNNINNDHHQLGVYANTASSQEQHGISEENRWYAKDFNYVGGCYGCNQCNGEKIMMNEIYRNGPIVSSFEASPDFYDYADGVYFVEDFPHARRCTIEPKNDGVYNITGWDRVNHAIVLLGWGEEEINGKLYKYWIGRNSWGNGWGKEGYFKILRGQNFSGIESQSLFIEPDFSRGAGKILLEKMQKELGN

Structure (SMILES)	% Inhibition @ 10 uM [%]
COc1ccc(NC(=O)COc2ccc(C(=O)NC3CCCCC3)cc2)cc1	-5.92
COC(=O)c1cc2oc3ccccc3c2n1CC(=O)NCc1ccco1	-7.02
CC1CCC(C(=O)NC(Cc2c[nH]c3ccccc23)C(=O)NCc2cccnc2)CC1 (stereo not shown)	-4.06
Cc1[nH]c2ccccc2c1C(NS(=O)(=O)c1ccccc1)C(Cl)(Cl)Cl (stereo not shown)	-0.597
CCOC(=O)N1CCC(NCCc2ccc(Cl)cc2Cl)CC1	-1.5
CN1CCC(N(C)Cc2cccc(Br)c2)CC1	1.4
Cc1cc(/C=C2/C(=N)N3C(=NC2=O)SN=C3S(C)(=O)=O)c(C)n1-c1cccc(C(F)(F)F)c1	-1.58
CCOCCCNC(=O)/C(=C/c1cccnc1)NC(=O)c1ccccc1	0.27
COc1ccc(C(=O)c2sc3nc(C)c(C)c(C)c3c2N)cc1OC	4.28
CCc1ccc(-c2c(C)sc(NC(=O)c3ccnn3C)c2C#N)cc1	1.43
Cc1ccc(CNCc2cccn2-c2c(C(=O)O)cnn2-c2ccccc2)cc1	7.75
CC(=O)Nc1ccc(S(=O)(=O)n2ccnc2)cc1	-4.43
Nc1c(C(=O)Nc2nccs2)sc2nc(-c3cccs3)cc(C(F)(F)F)c12	76.8
CC1(C)CC(=O)N(Cc2ccccc2)C(=O)C1	-1.52
Cc1cc2ccccc2n1-c1ccc(C(=O)N2CCCCCC2)s1	3.12
CCOC(=O)C1=C(C)N=c2s/c(=C\c3cc(Cl)cc(Cl)c3O)c(=O)n2C1c1ccccc1Cl (stereo not shown)	43.8
CCOc1ccc2nc3sc(C(=O)Nc4ccc(F)cc4)c(N)c3cc2c1	17.4
O=C(COc1ccc2cc(Br)ccc2c1)N1N=C(C(F)F)CC1(O)C(F)F (stereo not shown)	1.57
CC(=O)NCC1OCCc2ccccc21 (stereo not shown)	-1.97
CCCCNc1nc2c(-c3ccccc3)nnn2c2ccccc12	-8.42
COc1ccc(C(=O)OCC2CC(c3ccccc3)=NO2)cc1OC (stereo not shown)	1.91
Cc1nc(C(=N)NOC(=O)Cc2ccccc2)no1	3.79

Structure (SMILES)	% Inhibition @ 10 uM [%]
Cc1ccc(NC(=O)CSCC(=O)Nc2cccc(C)c2C)cc1	5.09
Cc1ccccc1NC(=O)NCc1cccnc1	-3.12
Cc1cc(NC(=O)CCc2ccccc2)no1	9.14
Cc1ccc(C(C)C)c(OCC(=O)NN)c1	4.73
CC(NC(=O)c1ccccc1NC(=O)Cc1ccccc1)c1ccccc1 (stereo not shown)	5.31
CCOc1cc(C)c(S(=O)(=O)Nc2cccnc2)cc1C	-1.72
CCN1C(=O)S/C(=C\c2ccc(N3CCOCC3)cc2C)C1=O	1.64
Cc1c(C(=O)N2CCCC(C)C2)oc2ccccc12 (stereo not shown)	3.21
CN1C(=O)C(=Cc2cc(Br)c(O)c(Br)c2)C(=O)N(C)C1=O	10.4
Cn1c(=O)c2c(nc(Cl)n2CC(=O)N2CCCCC2)n(C)c1=O	-1.63
O=C(O)c1ccc(S(=O)(=O)c2ccc3c(c2)C(=O)N(c2ccc(O)cc2)C3=O)cc1	-1.89
CC(C)Cn1cc(NC(=O)Nc2nccs2)c2ccccc2c1=O	-2.52
Cc1nn(C)c(C(=O)N(C)C23CC4CC(CC(C4)C2)C3)c1Br	-3.85
CC1(C)CC(=O)c2sc(NC(=O)c3ccc(Cl)c(Cl)c3)nc2C1	-1.47
O=C(CSc1ncn(-c2ccccc2)n1)Nc1nc(-c2ccccc2)cs1	2.95
COC(=O)Nc1sc(C(=O)N(C)C)c(C)c1C(=O)OC	-1.1
COC(=O)CCCC[C@H]1SC[C@H]2NC(=O)N[C@@]21O	2.22
O=C(c1ccccn1)c1conc1C(=O)c1cccs1	1.82
CC1=C(CCN(CCCN(C)C)CCCN(C)C)C(C)(C)CCC1	-2.21
Cc1ccc(C)c(S(=O)(=O)Nc2cc(SCC(=O)O)c(O)c3ccccc23)c1	-0.736
Fc1ccc(NCc2ccc(OCc3ccccc3)cc2)cc1	-0.292
O=C1c2ccccc2C(=O)c2cc(S(=O)(=O)n3cnc4ccccc43)ccc21	2.94

Structure (SMILES)	% Inhibition @ 10 uM [%]
COc1ccc(-c2onc(C)c2C)cc1S(=O)(=O)Nc1cc(C)nc2ccccc12	-0.0795
COc1ccc(C(=O)n2nc(-c3cccnc3)nc2N)cc1OC	-1.33
C=CCNC(=O)/C(C#N)=C/c1c(Oc2ccc(C)cc2)nc2ccccn2c1=O	1.19
Cc1noc(C)c1S(=O)(=O)N1CCC(C(=O)NCCCN2CC(C)CC(C)C2)CC1 (stereo not shown)	-2.99
Cc1ccc2nc(NC(=O)CSc3nnc(Cc4cccn4C)n3C)sc2c1	3.33
CC1(C)CC(=O)c2cc(C(=O)NC3CCCCC3)c(O)nc2C1	-0.601
Cc1ccnc2nc(NC(=O)C(C)C)nn12	2.05
CN1CCN(c2cc3c(cc2N)c(=O)c(C(=O)O)c2n3CCC2)CC1	-10.1
O=C(O)CCC(=O)N1N=C(c2c(O)nc3ccc(Cl)cc3c2-c2ccccc2)CC1c1ccco1 (stereo not shown)	-5.13
CC(Oc1ccccc1)C(=O)N(Cc1nc(-c2ccccc2)no1)C(C)C (stereo not shown)	-0.352
Cc1c(C2(c3c(C)n(C)n(-c4ccccc4)c3=O)C(=O)Nc3ccc([N+](=O)[O-])cc32)c(=O)n(-c2ccccc2)n1C	-8.37
Fc1cccc(CN2CCC(N3CCCCC3)CC2)c1	-4.95
CC(C)/C=C1\CC/C(=C\c2cccnc2)C1=O	1.83
O=C(c1ccc(F)cc1)N1CCN(C2C3CC4CC(C3)CC2C4)CC1 (stereo not shown)	-1.55
COc1ccccc1-c1noc(CCC(=O)Nc2cccnc2)n1	2.89
CCCOc1ccc(C2c3c(oc4ccccc4c3=O)C(=O)N2c2nc(C)c(C)s2)cc1OCC (stereo not shown)	0.189
COc1ccc(C(=O)Nc2ccc(C(=O)N3CCC(C)CC3)cc2)cc1OC	-3.33
Cc1ccccc1CN1CCN(CCO)CC1	-3.44
c1coc(-c2nnc(SCc3nc4ccccc4[nH]3)o2)c1	1.91
CC1Oc2ccccc2C=C1/C=C/C(=O)O (stereo not shown)	3.6
